# Source: PubChem BioAssay AID1508642 (National Center for Advancing Translational Sciences (NCATS), 2021)
# Out of some 43,000 compounds screened, about 200 (0.47%) were called active. About 12% were inconclusive and are not listed. Calls come from the whole dose curve; as a rule, active = well fitted cell-killing curve with a large enough effect; inconclusive = small, poorly fitted or top-dose-only effect, or effect the other way; inactive = flat fitted curve, though single readings scatter. The list shows a part of the results.
# Assay: Cell viability qHTS assay in S16 Pmp22-F2sN cells; note: nearly all actives have a fitted effect of over 65% in size
# Details: S16 Pmp22-F2sN Schwann cells viability, CellTiter-Glo, 24 h; series mostly up to 57.5 µM; activity change, negative = cytotoxicity: at the top concentration
# How it was run: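 Used to flag compounds lowering reporter output through toxicity, this quantitative HTS measures ATP-based CellTiter-Glo luminescence in S16 Pmp22-F2sN Schwann cells after 24 h compound exposure at 37C.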
# % is set by controls: 0 for no effect and ±100 for the full control effect.
row,SMILES,"activity change, negative = cytotoxicity"
1,Cc1cccc(NC(=O)CCn2cnnn2)c1C,inactive: -3.67%
2,COc1cc(OC)c(NC(=O)CCc2c(C)nc3ncnn3c2C)cc1Cl,inactive: 10.5%
3,COc1ccc(-c2nc(CSCC(=O)NCCc3ccccc3)c(C)o2)cc1,inactive: -25.5%
4,CN(Cc1ccccc1)c1ccc(-c2nc(-c3ccccn3)no2)cc1[N+](=O)[O-],inactive: 2.78%
5,COc1cccc(N2CCN(C(=O)c3cc4cc5cc(C)ccc5nc4s3)CC2)c1,inactive: -3.38%
6,COc1ccc(Cn2cc(S(=O)(=O)c3ccc(Cl)cc3)c(=O)c3cc4c(cc32)OCO4)cc1,inactive: 2.19%
7,O=C(NC1(C(F)(F)F)C(=O)Nc2c1c(=O)[nH]c(=O)n2-c1ccc(Cl)cc1)c1ccccc1F (centres undefined),inactive: 1.8%
8,CNC(=O)C1CCC(Cn2c(=O)c3sccc3n(CC(=O)NCc3ccc(OC)cc3)c2=O)CC1 (centres undefined),inactive: 1.07%
9,COc1ccccc1NC(=O)c1c(NC(=O)COc2ccccc2)sc2c1CCCCC2,inactive: 19.7%
10,COc1ccc2cc(-c3nc(Cl)c4c5c(sc4n3)CC(C)CC5)c(=O)oc2c1 (centres undefined),inactive: 12.6%
11,O=C(Cn1c(=O)n(-c2cccc(Cl)c2)c(=O)c2sc3ccccc3c21)NC1CCCCC1,inactive: 15.2%
12,Cc1ccc(OCC(=O)Nc2cccc(-c3nc4ccccc4o3)c2C)cc1C,inactive: -3.8%
13,Cc1cc2nc(-c3cccc(NC(=O)C(C)C)c3C)oc2cc1C,inactive: 2.53%
14,O=C(c1cc(-c2ccccc2O)on1)N1CCCCC1,inactive: 3.9%
15,O=C(c1ccc2c(c1)N(Cc1ccccc1F)C(=O)c1ccccc1S2(=O)=O)N1CCN(c2ccccc2F)CC1,inactive: -2.84%
16,CCOc1ccc(C(=O)Nc2ccc3nn(-c4ccc(OC)c(Cl)c4)nc3c2)cc1,inactive: 5.73%
17,CCN(CC)C(=O)c1sc2c(c1C)c(=O)n(CCc1ccccc1)c(=O)n2Cc1ccc(F)cc1Cl,inactive: 4.66%
18,CCc1ccc(O)c(C(=O)c2cnc3cc(-c4ccc(C)cc4)nn3c2)c1,inactive: 17.4%
19,N#Cc1c(C(F)(F)F)cc(-c2cccs2)nc1SCC(=O)Nc1ccccc1F,inactive: 16%
20,Cc1ccc(Cl)cc1NC(=O)Cn1c(=O)n(Cc2ccccc2)c(=O)c2oc3ccccc3c21,inactive: 11.7%
21,Cc1ccc(CNC(=O)CCc2c(C)nc3nc(C)nn3c2C)cc1,inactive: -13%
22,Cc1ccc(OCC(=O)Nc2cccc(OCc3cc(=O)n4cccc(C)c4n3)c2)cc1C,inactive: -6.95%
23,Cc1ccc(CCNC(=O)CCCn2c(=O)c3ccccc3n(Cc3ccccc3C#N)c2=O)cc1,inactive: 7.91%
24,CCn1cc2c(n1)-c1c(oc(C(=O)Nc3cccc(C)c3C)c1C)CC2,inactive: 6.92%
25,CCOc1ccc(-c2cc(C(=O)NCc3ccccc3Cl)c3ccccc3n2)cc1,inactive: -6.06%

row,SMILES,"activity change, negative = cytotoxicity"
1,CCn1cc(S(=O)(=O)c2ccccc2)c(=O)c2cc(F)c(N3CCCC3)cc21,inactive: -20%
2,Cc1cc(C)cc(NS(=O)(=O)c2ccc3[nH]cc(C(=O)NC4CCCCC4)c(=O)c3c2)c1,inactive: -29.7%
3,COCCCNC(=O)c1ccc(-n2c(-c3ccccc3)cc3c2CCCC3)cc1,inactive: 2.06%
4,COc1cccc(-c2nnc(SCC(=O)N3CCC(C)CC3)o2)c1,inactive: 1.82%
5,O=C(OCc1cc(=O)n2nc(C3CCCCC3)sc2n1)c1ccccc1Cl,inactive: 10.8%
6,Cc1ccc(NC(=O)CCCn2c(=O)c3cccn3c3ccccc32)cc1C,inactive: 19.4%
7,CC(C)CC(=O)n1nc(-c2cccnc2)nc1NCc1ccc(F)cc1,inactive: -0.616%
8,COc1ccc(OCC(=O)OCc2cc(=O)n3nc(-c4cccs4)sc3n2)cc1,inactive: 16%
9,Cc1cc(C)n(-c2nc3ccccc3nc2Nc2ccc(Cl)c(C(=O)OC(C)C)c2)n1,inactive: 8.88%
10,CC(=O)c1cccc(NC(=O)C2CCCN(C(=O)c3cnn(-c4ccccc4)c3-n3cccc3)C2)c1 (centres undefined),inactive: -27.8%
11,Cc1cccc(N2CCN(S(=O)(=O)c3cc(Cl)ccc3Cl)CC2)c1C,inactive: 20.1%
12,Cn1c2ccccc2c2cnn(CC(=O)N3CCN(c4cccc(C(F)(F)F)c4)CC3)c(=O)c21,inactive: 21%
13,CCC(CC)C(=O)Nc1ccc2nc(SCC(=O)N3CCc4ccccc43)sc2c1,inactive: 2.3%
14,CCCCNc1ccc(-c2nc(-c3ccco3)no2)cc1[N+](=O)[O-],inactive: -3.48%
15,CC1=C(C(N)=O)C(c2ccc(F)cc2)n2nc(-c3ccccc3Cl)nc2N1 (centres undefined),inactive: 11.8%
16,COc1ccc(CC(=O)NCc2ccc3c(c2)CCN3C(C)=O)cc1,inactive: 4.05%
17,COc1ccc(-c2nc(SCC(=O)Nc3ccc4c(c3)OCCO4)c(-c3ccc(F)cc3)[nH]2)cc1OC,inactive: 0.844%
18,O=C(c1ccc2c(c1)N(Cc1ccc(F)cc1)C(=O)c1ccccc1S2(=O)=O)N1CCN(Cc2ccccc2)CC1,inactive: 10.9%
19,Cc1ccc2oc3c(c(=O)c2c1)C(c1ccc([N+](=O)[O-])cc1)N(CCCN1CCOCC1)C3=O (centres undefined),inactive: 11.5%
20,C=CCc1ccccc1OCc1nc2ccccc2n1CC,inactive: 4.44%
21,CCOC(=O)C1CCN(C(=O)Cn2ncc3c4ccccc4n(Cc4ccc(F)cc4)c3c2=O)CC1,inactive: -3.73%
22,COc1ccc(S(=O)(=O)c2c(O)c3ccc(C(=O)NCc4ccc(Cl)cc4)cc3[nH]c2=O)cc1,inactive: 2.79%
23,Cc1csc2nc(COc3ccc(NC(=O)COc4ccccc4)cc3)cc(=O)n12,inactive: -1.02%
24,Cc1cc(NC(=O)CSc2ncc(C(=O)Nc3ccc(Cl)cc3)c(=O)n2C)no1,inactive: 5.05%
